Results as given in PubChem BioAssay AID1645882 (National Center for Advancing Translational Sciences (NCATS), 2021).
Screen size: about 16,000 compounds; about 120 (0.75%) were called active. Not shown: some 4% with an inconclusive outcome. Calls follow the shape of the dose curve; as a rule, active = well fitted inhibition curve with a large enough effect; inconclusive = small, poorly fitted or top-dose-only effect; inactive = no such curve, though single readings can be large or run the other way. The list shows a part of the results.

Target: Rap guanine nucleotide exchange factor 3 (Homo sapiens) (UniProt O95398)
Assay: Validation qHTS for antagonist of cAMP-regulated guanine nucleotide exchange factor 3 (EPAC1);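 also: plate controls were DMSO for no effect and ATA control for full effect; nearly all actives have a fitted effect of over 75% in size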
Conditions: EPAC1 Rap1B-BODIPY-GDP exchange, fluorescence; series mostly up to 150 µM; activity change, negative = inhibition: at the top concentration
Summary of the method: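 Nucleotide exchange followed as fluorescence loss when BODIPY-GDP leaves Rap1B (480 nm excitation, 540 nm emission), read at 5 min intervals over 30 min. Reaction: 100 nM EPAC1, 250 nM RAP1B-BODIPY-GDP, 50 uM GDP; ATA and DMSO define normalization.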

Chain of UniProt O95398 (O95398 whole entry, looked up): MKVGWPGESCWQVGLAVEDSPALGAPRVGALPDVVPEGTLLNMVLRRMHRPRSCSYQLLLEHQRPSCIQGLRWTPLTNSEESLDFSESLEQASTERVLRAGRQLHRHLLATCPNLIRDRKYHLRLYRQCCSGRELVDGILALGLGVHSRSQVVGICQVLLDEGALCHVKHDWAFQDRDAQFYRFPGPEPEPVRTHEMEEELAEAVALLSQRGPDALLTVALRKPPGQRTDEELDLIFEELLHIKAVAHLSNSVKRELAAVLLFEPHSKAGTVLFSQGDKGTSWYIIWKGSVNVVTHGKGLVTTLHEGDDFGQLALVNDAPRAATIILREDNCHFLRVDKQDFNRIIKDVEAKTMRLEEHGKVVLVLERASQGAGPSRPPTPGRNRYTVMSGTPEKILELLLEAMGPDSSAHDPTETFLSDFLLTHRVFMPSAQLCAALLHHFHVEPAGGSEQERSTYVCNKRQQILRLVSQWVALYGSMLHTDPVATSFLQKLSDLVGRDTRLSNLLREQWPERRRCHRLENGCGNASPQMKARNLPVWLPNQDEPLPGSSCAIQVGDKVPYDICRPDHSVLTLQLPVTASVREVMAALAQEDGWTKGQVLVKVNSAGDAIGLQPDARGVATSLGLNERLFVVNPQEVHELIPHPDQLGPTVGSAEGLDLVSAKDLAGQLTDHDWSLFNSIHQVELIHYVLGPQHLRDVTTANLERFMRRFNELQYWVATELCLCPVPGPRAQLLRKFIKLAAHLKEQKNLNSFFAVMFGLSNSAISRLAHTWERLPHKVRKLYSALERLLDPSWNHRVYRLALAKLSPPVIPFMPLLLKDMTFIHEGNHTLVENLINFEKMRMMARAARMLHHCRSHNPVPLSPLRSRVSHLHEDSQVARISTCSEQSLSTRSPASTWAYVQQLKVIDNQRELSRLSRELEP

Activity change, negative = inhibition, inactive:
C[N+]1(C)CCC(OC(=O)C(c2ccccc2)c2ccccc2)CC1
Oc1cc(O)c2c(c1)O[C@H](c1ccc(O)c(O)c1)[C@@H](O)C2
Cc1[nH]ccc2c1[nH]c1cc(=O)ccc12
O=Cc1c2[nH]c3ccccc3c2cc2[nH]c3ccccc3c12
CC(=O)Oc1ccccc1C(=O)Nc1ncc([N+](=O)[O-])s1 6.37%
Cc1cc[n+](CCC2CCCCC2)cc1 12.1%
COc1ncc2nc(-c3cn(C)c4ccccc34)c(=O)n(Cc3ccc(F)cc3)c2n1 12.8%
CC1(C)CCC2(C(=O)O)CC[C@]3(C)C(=CCC4[C@]5(C)CCC(O)C(C)(C)C5C(O)C[C@]43C)C2C1 (some centres not stated) 17.9%
COc1cc(-c2cnc3ccccc3c2)cc2c1OCCN(S(=O)(=O)C[C@]13CC[C@H](CC1=O)C3(C)C)C2 -1.83%
CN1CCN(c2ncncc2-c2ccccc2Cl)CC1 12.6%
O=C(O)C[C@H]1c2cc(C(F)(F)F)ccc2S(=O)(=O)N1C1CCCC1 15.6%
Cc1cccc(C)c1Nc1ncccc1C(=O)O 6.32%
COc1ccccc1C1CN(CC(=O)N2CCC(C(O)c3ccccn3)CC2)Cc2ccccc2O1 (configuration not stated) -1.98%
COc1ccc(CNC(=O)C2CCCN2c2nc(C)c3ccccc3n2)cc1 (configuration not stated) -5.85%
COc1ccc(NC(=O)N2CCC3(CC2)CCN(C(=O)c2ccncc2)CC3)cc1 17%
COc1c2occc2cc2ccc(=O)oc12
CC1=CC[C@@]2(CO)COC(c3ccccc3O)C1C2 (some centres not stated) -6.49%
CC(C)CN1CCC2(CC1)CCN(C(=O)c1ccncc1)CC2 11.6%
O=C(NN1CCCC1)NS(=O)(=O)c1ccc(Cl)cc1 33.3%
CCCCC/C=C\C/C=C\CCCCCCCC(=O)O[C@@H](CO)COC(=O)CCCCCCCCCCCCCCCCC -11.4% [at 15.3 µM]
NCc1ccccc1CC(=O)N[C@@H]1C(=O)N2C(C(=O)O)=C(CSc3nnnn3CC(=O)O)CS[C@H]12 27.1% [at 75.8 µM]
Cc1sc2ccccc2[n+]1CCC[n+]1c(C)sc2ccccc21 -14.4%
CCc1ccccc1OC[C@@H](O)CN[C@H]1CCCc2ccccc21 -18.6%
c1ncc(-c2ccc3c(c2)OCO3)c(NCCc2cnc[nH]2)n1 -7.1%
NC(=NC1C2CC3CC(C2)CC1C3)Nc1ccc(I)cc1 (configuration not stated)
Cc1ncc2c(c1CNS(=O)(=O)N(C)C)CCN(C(=O)/C=C/c1cccc(F)c1)C2 10.3%
CN1CCN(C2=Nc3ccccc3Oc3ccc(Cl)cc32)CC1
Cc1c(Cn2ccnc2)c2ccccc2n1CCC(=O)O 9.6%
O=c1c(-c2ccc(Cl)cc2)nc2cnc(Oc3ccccc3)nc2n1C1CC1 8.57%
O=C1CCN(Cc2ccccc2)CCN1[C@H](CO)c1ccccc1
CC[C@@H]1[C@H]2CCCC(=O)N3CC[C@@H](C[C@@H]1OC(=O)Nc1ccc4c(c1)OCO4)[C@@H]23 -7.91%
CN(C)CC(C)(O)c1ccc2c(c1)CN(Cc1cccn1-c1ncccn1)CCO2 (configuration not stated) 9.42%
CC(=O)NC1C(O)C[C@@](O)(C(=O)O)OC1[C@@H](O)C(O)CO (some centres not stated) 22.4%
CCCCCc1c2c(cc(O)c1C(=O)O)OC(=O)c1c(cc(OC)cc1C(=O)CCCC)O2 -2.86%
O=C(Nc1cccc(F)c1)N1CCCC2(CCN(S(=O)(=O)c3ccccc3)CC2)C1 9.15%
N[C@H](C(=O)O)c1ccc(O)c(C(=O)O)c1
CS(=O)(=O)N1CCC2(CCCN(Cc3ccc(C#N)cc3)C2)CC1 17%
O=c1c(-c2cc(F)cc(F)c2)nc2cncnc2n1Cc1ccccc1Cl -5.85%
N#Cc1ccc(C(c2ccc(C#N)cc2)n2cncn2)cc1 17.7% [at 75.8 µM]
CN(C)c1ncc2nc(-c3ccc(Cl)cc3)c(=O)n(C)c2n1 2.86%
CS(=O)(=O)Nc1cccc(-c2cc(Nc3ccccc3)ncn2)c1 2.07%
C[N+](C)(CCOc1ccccc1)Cc1cccs1 12.9%
C[N+]1(C)CCC(OC(=O)C(O)(c2ccccc2)C2CCCC2)C1 (configuration not stated)
O=C(c1ccncc1)N1CCC2(CCCN(Cc3nccs3)C2)CC1 3.89%
CCCCCCCCCCCCCCCCCCOCC(O)CO (configuration not stated) 3.08%
O=C(c1cccc(F)c1)N1CCC2(CC1)CCN(c1cccc(-c3ccccc3)c1)CC2 6.07%
CC(C)C(NS(C)(=O)=O)c1nnc2n1CCN(Cc1ccc(C#CC(C)(C)O)cc1)CC2 (configuration not stated) 15%
CCC1CN(CC(=O)NCc2ccc3c(c2)OCO3)Cc2ccc(Cl)cc2O1 (configuration not stated) 13.3%
CNC(=O)[C@@H]1C[C@@H](NCc2cccc(Oc3ccccc3)c2)CN1C(C)C 11.9%
O=Cc1ccccc1-c1cn(CCCOCc2ccccc2)nn1 -1.91%
O=C(O)c1cn(-c2ccc(F)cc2)c2cc(N3CCNCC3)c(F)cc2c1=O 8.11%
C#C[C@]1(O)CCC2C3CCC4=Cc5oncc5C[C@@]4(C)C3CC[C@@]21C (some centres not stated) -7.73%
CCCCCCCCCCCCCCC[C@@H](O)[C@H](CO)NC(C)=O 19.9% [at 15.3 µM]
COc1ccc(C(=O)NCCN2Cc3ccccc3OC(c3ccsc3)C2)c(OC)n1 (configuration not stated) -10.3%
Cc1cnc(C)c(-c2cc(F)cc3c2OC(CNC(=O)CN2CCCC2)C3)n1 (configuration not stated) 1.63%
CN(C)C(=O)c1ccc(-c2ccc3ncnc(N4CCNCC4)c3c2)cc1 -7.27%
Cc1nc2ccc(C(=O)N3CCc4c(cnc(C)c4CNC(=O)/C=C/c4cccs4)C3)cc2nc1C 9%
Nc1nc2c([nH]c(=S)n2C2OC(CO)C(O)C2O)c(=O)[nH]1 (configuration not stated) 24%
O=c1c(-c2cccs2)nc2cnc(N3CCOCC3)nc2n1Cc1ccc(F)cc1 9.84%
Cc1cccc2nc(CNC(=O)CN3Cc4cc(Cl)ccc4OC(C)C3)cn12 (configuration not stated) 8.16%
C[C@@H](NCc1cc(Br)cc2[nH]c(=O)c(=O)[nH]c12)P(=O)(O)O 5.27%
C[C@@](N)(C(=O)O)[C@@H]1C[C@@H]1C(=O)O 29.1%
C[C@@H]1C[C@H]2[C@@H]3C[C@H](F)C4=CC(=O)C=C[C@]4(C)[C@@]3(F)[C@@H](O)C[C@]2(C)[C@@]1(O)C(=O)CO 17.5% [at 75.8 µM]
CC(=O)N1CCC2(CC1)CCN(C(=O)Nc1cccc(F)c1)CC2 17.4%
CS(=O)(=O)N1CCC2(CCN(C(=O)Nc3cccc(C#N)c3)CC2)CC1 17%
COc1ccc(NC(=O)N2CCCC3(CCN(C(C)=O)CC3)C2)cc1 12%
O=C(O)Cc1ccc(-c2ccccc2)cc1 -8.12% [at 75.8 µM]
Clc1ccccc1-c1ccc2ncnc(NC3CCNCC3)c2c1 14.7%
CC(=O)NCCNc1ncnc2ccc(-c3ccccc3C#N)cc12 3.28%
COc1ccccc1-c1ccc2ncnc(N3CCOCC3)c2c1 7.63%
CN1C2CCC1CC(OC(=O)c1c[nH]c3ccccc13)C2 (configuration not stated) 2.34% [at 75.8 µM]
Cc1ccccc1OCC(O)CNCCOc1ccc(C(N)=O)cc1 (configuration not stated) 19.1%
O=C(NCCc1nnc2n1CCN(Cc1c(F)cccc1F)CC2)c1ccc(F)cc1 -7%
CC(C)NC[C@H](O)c1ccc2ccccc2c1 4.28%
O=C(Nc1cccc(F)c1)N1CCCC2(CCN(C(=O)c3cccc(F)c3)CC2)C1 18%
COc1ccc(-c2nc3cnc(OC)nc3n(C[C@H]3CCCO3)c2=O)cc1 16.1%
Cc1ccnc2cc(Cl)cc(Cl)c12 -22.9%
CC(=O)Oc1ccc2c(c1OC(C)=O)OCC1(O)Cc3c(cc(OC(C)=O)c(OC(C)=O)c3OC(C)=O)C21 (configuration not stated) -11%
CCCCCCCCCCCCCCCC(=O)O[C@H]1[C@@H](O)[C@@H](O)[C@@H]([C@H](NC(=O)[C@@H]2C[C@@H](CCC)CN2C)[C@H](C)Cl)O[C@@H]1SC -5.3%
O=C(c1ccncc1)N1CCC[C@@]2(CCN(Cc3ccccc3)C2)C1 5.51%
COc1cccc(Nc2ncc3nc(-c4cc(F)cc(F)c4)c(=O)n(C4CC4)c3n2)c1 30.1%
Cc1nnc(C(=O)NC(C)(C)c2nc(C(=O)NCc3ccc(F)cc3)c(O)c(=O)n2C)o1 4.24%
c1cn(-c2ccnc(-c3ccc4c(c3)OCO4)n2)cn1 10.4%
N#Cc1ccc(CN2CC[C@@]3(CCCN(C(=O)c4ccco4)C3)C2)cc1 19.4%
O=C1NC(=O)[C@H]2[C@@H]1[C@@H]1C=C[C@H]2C1 -2.08%
Cc1cnc(CNc2ccnc(-c3ccccc3Cl)n2)cn1 15.7%
CS(=O)(=O)c1ccc(-c2ccc3c(c2)CC(CNC(=O)C2(N4CCOCC4)CCCCC2)O3)cc1 (configuration not stated) 2.55%
Cc1cc(-c2ccnc(-n3ncc(C(=O)NCCc4ccncc4)c3C)n2)c(C)s1 8.7%
CN(C)c1ncc2nc(-c3ccccc3)c(=O)n(Cc3ccc(F)cc3)c2n1 11.2%
CCNc1ncc2nc(-c3ccc(OC)cc3)c(=O)n(C[C@H]3CCCO3)c2n1 8.19%
Cc1cc(C)cc(C(=O)C[n+]2cccc(Br)c2)c1 -15%
O=C(c1cnccn1)N1CCC2(CCCN(c3ccncc3)C2)CC1 30.6%
COc1ccc2c(c1OC)C(Cc1ccccc1)N1CCc3cc4c(cc3C1=C2)OCO4 (configuration not stated) -4.66%
COc1ccc(-c2cc(=O)c3ccccc3o2)cc1 -1.54%
COc1ccc(-n2c(=O)c(-c3ccccc3)nc3cnc(N4CCNCC4)nc32)cc1 19.3%
CCOC(=O)C1=C(C)NC(C)=C(C(=O)OC)[C@H]1c1cccc([N+](=O)[O-])c1 -14.1%
CN1CCN(c2ncc3nc(-c4cccs4)c(=O)n(C[C@H]4CCCO4)c3n2)CC1 6.6%
O=S1(=O)CCOC[C@H](CC2CCCCC2)N1Cc1ccc(Cl)cc1 -3.6%
O=c1c(-c2cccs2)nc2cncnc2n1Cc1ccc(F)cc1 3.72%
COc1ccc2c(=O)c(OC)c(-c3ccccc3)oc2c1 -14.2%
CCCCCCCCCCCCC/C=C/[C@@H](O)[C@H](CO)NC(=O)CCCCCCC -20.2% [at 15.3 µM]
C=CCN1C[C@H](C(=O)N(CCCN(C)C)C(=O)NCC)C[C@@H]2c3cccc4[nH]cc(c34)C[C@H]21 11.4%
